# According to the supplement of paper PMC8728848:
# This is one part of the list.
# B1: GS7807P-bth-537-23-537 (Bacteroides thetaiotaomicron) (protein)
# chain: NYENINSNPYEAPDLSADGYALGSAMNNLAGCVVSPDVNTAQFTDCLLGGPLGGYFADSNAGFTETISNFNPKDDWSRVFLKSDKIIPTLYSNLTQVKLVSQNTNDPVPYAIAQVIKVAAMHRVTDAFGPIPYSQIGANGEIATPYDSQEVTYNTFFDELNAAIATLNENSNEQLVPTADYIYKGDVKKWIRFANSLKLRLAIRIAYANPVKAQQMAEEAVNPANGGVIESNADNATWNYFETSQNPIYVATRYNQVQTSDHGGVPCLTGGDTHAAADIICYMNGYKDNRREKFFTKSEWAGQDYVGMRRGIVIPELKTTGHKYSGVNIAPTSPLYWMNAAEVAFLRAEGQAVFNFSMGGTAESFYNQGIRLSFEQWGADGVEDYLKDDVNKPTAYTDPAGTNTYQNALSNITIKWNDSADKEEKQERIIVQKWIANWQLGNEAWADFRRTGYPKLIPVKENKSGGVVDSEKGARRMPYPLDEFVSNKANVEYAIANYLHGADNMATDVWWASKK
# Columns and labels:
# Assay in all cases: glycan array binding signal (z-score within array); higher = stronger binding
# Settings in all cases: glycan notation: IUPAC condensed, linker removed
# [1] = biological target: GalNAc(b1-4)GlcNAc(b1-2)Man
# Outline: (§1)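 Arrays were curated from the Consortium for Functional Glycomics database, 3228 in total, and kept only where the protein sequence was available. Binding is expressed as a within-array Z-score. This score was averaged across arrays of the same protein sequence at different concentrations or buffers and across linkers, and negative values can be read as non-binding.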
# [2] = biological target: GalNAc(b1-4)GlcNAc(b1-2)Man(a1-3)[GalNAc(b1-4)GlcNAc(b1-2)Man(a1-6)]Man(b1-4)GlcNAc(b1-4)GlcNAc
# Outline: as §1
# [3] = biological target: GalNAc(b1-4)GlcNAc(b1-3)GalNAc(b1-4)GlcNAc
# Outline: as §1
# GalNAc(b1-4)GlcNAc6S = biological target: GalNAc(b1-4)GlcNAc6S
# Outline: as §1
# GalNAc(b1-6)GalNAc = biological target: GalNAc(b1-6)GalNAc
# Outline: as §1
# GalNAc3S(b1-4)GlcNAc = biological target: GalNAc3S(b1-4)GlcNAc
# Outline: as §1
# GalNAc3S(b1-4)GlcNAc3S = biological target: GalNAc3S(b1-4)GlcNAc3S
# Outline: as §1
# [4] = biological target: GalNAc3S(b1-4)[Fuc(a1-3)]GlcNAc
# Outline: as §1
# GalNAc4S6S(b1-4)GlcNAc = biological target: GalNAc4S6S(b1-4)GlcNAc
# Outline: as §1
# GalNAc6S(b1-4)GlcNAc = biological target: GalNAc6S(b1-4)GlcNAc
# Outline: as §1
# Glc(a1-4)Glc = biological target: Glc(a1-4)Glc
# Outline: as §1
# [5] = biological target: Glc(a1-4)Glc(a1-4)Glc(a1-4)Glc
# Outline: as §1
# Glc(a1-6)Glc(a1-6)Glc = biological target: Glc(a1-6)Glc(a1-6)Glc
# Outline: as §1
# [6] = biological target: Glc(a1-6)Glc(a1-6)Glc(a1-6)Glc
# Outline: as §1
# Glc(b1-4)Glc = biological target: Glc(b1-4)Glc
# Outline: as §1
# Glc(b1-6)Glc = biological target: Glc(b1-6)Glc
# Outline: as §1
# GlcA(b1-3)Gal = biological target: GlcA(b1-3)Gal
# Outline: as §1
# GlcA(b1-3)GlcNAc = biological target: GlcA(b1-3)GlcNAc
# Outline: as §1
# GlcA(b1-6)Gal = biological target: GlcA(b1-6)Gal
# Outline: as §1
# [7] = biological target: GlcA3S(b1-3)Gal(b1-4)GlcNAc(b1-2)Man
# Outline: as §1
# [8] = biological target: GlcA3S(b1-3)Gal(b1-4)GlcNAc(b1-3)Gal(b1-4)Glc
# Outline: as §1
# [9] = biological target: GlcNAc(a1-3)Gal(b1-4)GlcNAc
# Outline: as §1
# [10] = biological target: GlcNAc(a1-4)Gal(b1-3)GlcNAc
# Outline: as §1
# [11] = biological target: GlcNAc(a1-4)Gal(b1-4)GalNAc
# Outline: as §1
# [12] = biological target: GlcNAc(a1-4)Gal(b1-4)GlcNAc
# Outline: as §1
# [13] = biological target: GlcNAc(a1-4)Gal(b1-4)GlcNAc(b1-3)Gal(b1-4)Glc
# Outline: as §1
# [14] = biological target: GlcNAc(a1-4)Gal(b1-4)GlcNAc(b1-3)Gal(b1-4)GlcNAc
# Outline: as §1
# [15] = biological target: GlcNAc(a1-4)Gal(b1-4)GlcNAc(b1-3)Gal(b1-4)GlcNAc(b1-3)Gal(b1-4)GlcNAc
# Outline: as §1
# [16] = biological target: GlcNAc(a1-4)Gal(b1-4)GlcNAc(b1-3)Gal(b1-4)[Fuc(a1-3)]GlcNAc(b1-3)Gal(b1-4)[Fuc(a1-3)]GlcNAc
# Outline: as §1
# [17] = biological target: GlcNAc(a1-6)Gal(b1-4)GlcNAc
# Outline: as §1
# [18] = biological target: GlcNAc(b1-2)Gal(b1-3)GalNAc
# Outline: as §1
# [19] = biological target: GlcNAc(b1-2)Man(a1-3)[GlcNAc(b1-2)Man(a1-6)]Man(b1-4)GlcNAc(b1-4)GlcNAc
# Outline: as §1
# [20] = biological target: GlcNAc(b1-2)Man(a1-3)[GlcNAc(b1-2)Man(a1-6)]Man(b1-4)GlcNAc(b1-4)[Fuc(a1-6)]GlcNAc
# Outline: as §1
# [21] = biological target: GlcNAc(b1-2)Man(a1-3)[GlcNAc(b1-4)][GlcNAc(b1-2)Man(a1-6)]Man(b1-4)GlcNAc(b1-4)GlcNAc
# Outline: as §1
# [22] = biological target: GlcNAc(b1-2)Man(a1-3)[GlcNAc(b1-4)][GlcNAc(b1-2)Man(a1-6)]Man(b1-4)GlcNAc(b1-4)[Fuc(a1-6)]GlcNAc
# Outline: as §1
# [23] = biological target: GlcNAc(b1-2)[GlcNAc(b1-4)]Man(a1-3)[GlcNAc(b1-2)Man(a1-6)]Man(b1-4)GlcNAc(b1-4)GlcNAc
# Outline: as §1
# [24] = biological target: GlcNAc(b1-2)[GlcNAc(b1-4)]Man(a1-3)[GlcNAc(b1-4)][GlcNAc(b1-2)Man(a1-6)]Man(b1-4)GlcNAc(b1-4)GlcNAc
# Outline: as §1
binder,measurement,setting,value
B1,glycan array binding signal (z-score),[1],-0.394
same,glycan array binding signal (z-score),[2],-0.087
same,glycan array binding signal (z-score),[3],-0.24
same,glycan array binding signal (z-score),GalNAc(b1-4)GlcNAc6S,-0.344
same,glycan array binding signal (z-score),GalNAc(b1-6)GalNAc,-0.355
same,glycan array binding signal (z-score),GalNAc3S(b1-4)GlcNAc,-0.394
same,glycan array binding signal (z-score),GalNAc3S(b1-4)GlcNAc3S,-0.283
same,glycan array binding signal (z-score),[4],-0.339
same,glycan array binding signal (z-score),GalNAc4S6S(b1-4)GlcNAc,-0.346
same,glycan array binding signal (z-score),GalNAc6S(b1-4)GlcNAc,1.97
same,glycan array binding signal (z-score),Glc(a1-4)Glc,-0.309
same,glycan array binding signal (z-score),[5],-0.328
same,glycan array binding signal (z-score),Glc(a1-6)Glc(a1-6)Glc,-0.397
same,glycan array binding signal (z-score),[6],-0.369
same,glycan array binding signal (z-score),Glc(b1-4)Glc,-0.372
same,glycan array binding signal (z-score),Glc(b1-6)Glc,-0.372
same,glycan array binding signal (z-score),GlcA(b1-3)Gal,-0.369
same,glycan array binding signal (z-score),GlcA(b1-3)GlcNAc,-0.366
same,glycan array binding signal (z-score),GlcA(b1-6)Gal,0.769
same,glycan array binding signal (z-score),[7],-0.341
same,glycan array binding signal (z-score),[8],-0.344
same,glycan array binding signal (z-score),[9],-0.399
same,glycan array binding signal (z-score),[10],-0.394
same,glycan array binding signal (z-score),[11],-0.138
same,glycan array binding signal (z-score),[12],-0.359
same,glycan array binding signal (z-score),[13],-0.375
same,glycan array binding signal (z-score),[14],0.693
same,glycan array binding signal (z-score),[15],-0.356
same,glycan array binding signal (z-score),[16],-0.189
same,glycan array binding signal (z-score),[17],-0.168
same,glycan array binding signal (z-score),[18],-0.394
same,glycan array binding signal (z-score),[19],-0.374
same,glycan array binding signal (z-score),[20],0.053
same,glycan array binding signal (z-score),[21],-0.338
same,glycan array binding signal (z-score),[22],-0.383
same,glycan array binding signal (z-score),[23],-0.293
same,glycan array binding signal (z-score),[24],-0.39
